The subject of this assay is IL-18 production in dendritic cells. The experiment in a line: qPCR of Il18 in bone marrow derived dendritic cells treated with AOM or DMH. The note with it: STING-dependent, 1 mM for 8 hours. The method, then:
FIGS. 3A-3C show suppression of IL22BP expression in STING-deficient mice: (FIG. 3A) Fold changes from gene array analysis of Il18 in WT and SKO MEFs administrated with 4 ug/ml of dsDNA90 and IFNβ for 8 hours (Left). qPCR analysis of Il18 in WT and SKO MEFs transfected with 4 μg/ml of dsDNA90 and cyclic-di-GMP-AMP (cGAMP) for 8 hours (Middle). qPCR analysis of Il18 in bone marrow derived dendritic cells (BMDCs) from WT and SKO mice. BMDCs were treated with 1 mM of AOM and 1 mM of DMH for 8 hours (Right). (FIG. 3B) Schematic representation, body weight, and qPCR analysis of IL18, IL22 bp and IL22 from WT and SKO colon during one cycle of DSS administration for 5 days followed by 2 days of normal water. (FIG. 3C) qPCR analysis of IL18, IL22 bp and IL22 in WT and SKO colon tissue from FIG. 2. Data is representative of at least two independent experiments. Error bars indicate s.d. *; p<0.05, Student's t-test.
In this situation, MyD88 exerts a protective effect by facilitating the production of IL-18 through the IL-18R, which is required to inhibit IL-22BP. IL-22BP is necessary to suppress IL-22 function, which can promote the proliferation of intestinal epithelial cells following damage by carcinogens or inflammatory agents. Mice lacking IL-18 or IL-22BP are highly susceptible to CAC, similar to STING-deficient mice. […]

For the molecule `CN=[N+](C)[O-]` [AOM, Azoxymethane], the “production of IL-18” value is recorded as “could also trigger the production of IL-18”.
In the case of `CNNC` [DMH, 1,2-dimethylhydrazine], the “production of IL-18” value was “could also trigger the production of IL-18”.

The values above are taken from patent US10821142B2, “Cancer treatment and diagnosis” (priority 2015, dated 2020).
